About 2,200 (0.71%) of roughly 310,000 compounds showed an effect of 50% or more. The effect is printed as a negative number. The list shows a part of the results.

For the assay, the target named is human ether-à-go-go-related gene (hERG) potassium channel (human, UniProt Q12809). The assay is described as follows: primary screen, population patch clamp on CHO cells stably expressing hERG.
Chain of human ether-à-go-go-related gene (hERG) potassium channel (Q12809 whole entry, looked up): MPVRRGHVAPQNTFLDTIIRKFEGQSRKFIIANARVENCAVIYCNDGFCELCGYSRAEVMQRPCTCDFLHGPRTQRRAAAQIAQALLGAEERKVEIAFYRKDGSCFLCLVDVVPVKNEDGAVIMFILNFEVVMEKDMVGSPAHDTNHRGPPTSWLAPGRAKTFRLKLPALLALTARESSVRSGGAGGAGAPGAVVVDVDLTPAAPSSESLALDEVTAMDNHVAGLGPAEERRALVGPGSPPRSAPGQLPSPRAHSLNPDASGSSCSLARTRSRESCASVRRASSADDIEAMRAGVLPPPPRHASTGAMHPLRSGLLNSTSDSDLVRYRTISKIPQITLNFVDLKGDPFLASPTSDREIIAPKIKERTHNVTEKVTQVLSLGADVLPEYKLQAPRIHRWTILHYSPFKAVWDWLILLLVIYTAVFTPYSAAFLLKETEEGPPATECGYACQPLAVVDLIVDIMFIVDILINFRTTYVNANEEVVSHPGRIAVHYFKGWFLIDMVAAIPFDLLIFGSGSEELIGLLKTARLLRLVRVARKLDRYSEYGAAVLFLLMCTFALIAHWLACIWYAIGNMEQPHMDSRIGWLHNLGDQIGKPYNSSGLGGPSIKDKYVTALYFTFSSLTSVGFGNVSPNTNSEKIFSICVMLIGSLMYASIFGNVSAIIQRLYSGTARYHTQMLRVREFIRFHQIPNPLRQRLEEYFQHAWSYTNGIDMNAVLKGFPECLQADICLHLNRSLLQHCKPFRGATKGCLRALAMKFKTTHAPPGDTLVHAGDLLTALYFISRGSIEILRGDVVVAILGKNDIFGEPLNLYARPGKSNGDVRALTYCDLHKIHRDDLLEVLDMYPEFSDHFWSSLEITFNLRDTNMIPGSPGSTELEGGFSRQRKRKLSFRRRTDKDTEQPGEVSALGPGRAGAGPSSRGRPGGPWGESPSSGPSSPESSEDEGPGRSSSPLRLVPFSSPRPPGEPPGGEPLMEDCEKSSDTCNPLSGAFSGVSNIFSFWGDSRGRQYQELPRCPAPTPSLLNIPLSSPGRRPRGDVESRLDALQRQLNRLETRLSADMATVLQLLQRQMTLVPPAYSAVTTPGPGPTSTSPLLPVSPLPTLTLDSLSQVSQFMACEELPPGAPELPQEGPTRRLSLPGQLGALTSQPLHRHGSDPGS
Turning to `CCCc1nc(C)c(-c2ccc(OC)c(OC)c2)c(=O)[nH]1`, the “hERG current change (%, negative = inhibition) at 1uM” value was 3.9%.
The result for `Cc1[nH]c2ccccc2c1C(=O)CN1CCC2(CC1)OCCO2` reads -2.64%.
As for `C(=N\n1cnnc1SCc1ccccc1)/c1ccco1`, the figure is 4.88%; as for `COc1ccc(OC)c(C(=O)NC(CC(N)=O)c2ccc(NC(C)C)c([N+](=O)[O-])c2)c1` (centres unmarked), -23.4%.
On to `Cc1ccc(-n2c(O)c(/C=N/Nc3ccccc3)c(=O)[nH]c2=O)cc1C`, for which the “hERG current change (%, negative = inhibition) at 1uM” value stood at 9.94%.
In the case of `CCOC(=O)C1=C(C)OC(N)=C(C#N)C1c1cc(C)sc1C` (centres unmarked), the “hERG current change (%, negative = inhibition) at 1uM” value is listed as -13.1%.
As for `Cc1c(=O)n(OCc2ccccn2)c2ccccc2[n+]1[O-]`, the figure is 17.4%.
As for `Cc1ccc(NC(=O)c2cccc(NC(=O)CCC(=O)O)c2)cc1C`, the figure is 18.6%.
As for `CC(C)(Oc1ccc(Cl)cc1)C(=O)O`, the figure is 13.9%.
Take `Cc1ccc(NC(=O)Cn2nnc3ccccc32)cc1`: the “hERG current change (%, negative = inhibition) at 1uM” value was 14.4%.
As to `CC(=O)NS(=O)(=O)c1ccccc1`, the “hERG current change (%, negative = inhibition) at 1uM” value was 11.4%.
The result for `COc1ccc2c(CC(=O)OCC(=O)Nc3ccc4c(c3)OCO4)coc2c1` reads -2.17%.
The result for `COc1cccc(CN2CCNC(=O)C2CC(=O)NCc2cc(C(C)C)no2)c1` (centres unmarked) reads 15.4%.
The result for `CCOc1ccc(C(=O)/C=C/c2ccc(OC)c(OC)c2)cc1` reads 8.99%.
Turning to `Cn1cccc1Cc1nnc(SCC(=O)Nc2ccc3c(c2)OCO3)n1-c1ccc(F)cc1`, the “hERG current change (%, negative = inhibition) at 1uM” value amounted to 8%.
As for `CC(=O)c1ccc(NC(=O)CCC(=O)N2CC(C)Oc3ccc(C)cc32)cc1` (centres unmarked), the figure is 4.65%; as for `CC(=O)N1CC(=O)N(c2ccccc2)C1=O`, 15%; as for `CCCCC(C(=O)NC1CCCC1)N(Cc1ccco1)C(=O)Cn1nnc(-c2ccc(F)cc2)n1` (centres unmarked), -1.41%.
As for `CCOC(=O)c1ccc2c(c1)sc(=NC(=O)c1ccco1)n2CCOC`, the figure is 6.89%.
As for `CCOC(=O)c1ccccc1NC(=O)c1cccc2c1C(=O)N(C1CCN(C(=O)OCC)CC1)C2`, the figure is -14.5%.
`CCN(CC)S(=O)(=O)c1ccc(OCC(=O)NCc2ccco2)cc1`: the “hERG current change (%, negative = inhibition) at 1uM” value came to 3.18%.
As for `O=S1(=O)N=C(Nc2ccc(O)cc2)c2ccccc21`, the figure is 9.36%; as for `CC(Sc1nnc(COc2ccccc2)n1Cc1ccccc1)C(=O)O` (centres unmarked), 6.38%; as for `CCC(C)NC(=O)CN1C(=O)C(CC)Sc2ccccc21` (centres unmarked), 1.41%.
As for `Cc1ccc([N+](=O)[O-])cc1NC(=S)NC(=O)C(C)(C)C`, the figure is 1.28%.
Turning to `Cc1ccccc1CCN(C(=O)c1csnn1)C(C(=O)NC1CCCC1)c1ccncc1` (centres unmarked), the “hERG current change (%, negative = inhibition) at 1uM” value was -5.39%.
The result for `NS(=O)(=O)c1ccc(CCNC(=O)c2ccc([N+](=O)[O-])cc2[N+](=O)[O-])cc1` reads 5.72%; that for `CC(C)c1nc2oc3c(NCc4cccnc4)ncnc3c2c2c1CCC2`, -6.78%; that for `CCC(C)[C@H](NC(=O)[C@@H]1Cc2ccccc2CN1C(=O)OC(C)(C)C)C(=O)NCC1CCC(C(=O)O)CC1` (some centres unmarked), 12.4%.
The result for `COCC(C)NC(=O)c1cc(S(=O)(=O)N2CCCCC2)ccc1N1CCOCC1` (centres unmarked) reads 10.1%; that for `CC(=O)Nc1cccc(C(=O)N/N=C/c2c[nH]c3ccccc23)c1`, 7.14%; that for `COc1ccc(/C=C2\Oc3cc(OCC(=O)N4CCC[C@H]4C(=O)O)ccc3C2=O)c(OC)c1`, 7.09%.
The result for `COc1ccc(-c2noc(CNS(=O)(=O)c3ccc(NC(C)=O)cc3)n2)cc1` reads 11.1%; that for `O=C(NC(=S)Nc1ccc(F)cc1)C1CCCCC1`, 6.46%; that for `CC(=O)ON1C(C)(C)Cc2noc(N)c2C1(C)C`, 10.2%.
Take `O=[N+]([O-])c1cnc2nc(-c3ccncc3)nn2c1[O-].[Na+]`: the “hERG current change (%, negative = inhibition) at 1uM” value was 19.8%.
The result for `Cc1c(NC(=O)c2cc(-c3ccc(Cl)s3)nc3ccccc23)c(=O)n(-c2ccccc2)n1C` reads 10%; that for `COc1ccc(COCCN2CCN(S(=O)(=O)c3ccc(C)cc3)CCC2=O)cc1`, -0.783%; that for `Cn1c(CCNC(=O)c2ccco2)nc2cc(NC(=O)C3CCCCC3)ccc21`, -7.41%.
As for `Cn1cc(-c2ccccc2C(N)=O)c(=O)c2ccccc21`, the figure is 7.35%; as for `CN1C(=O)[C@H]2[C@@H](/C=C/c3ccccc3)N3C(=O)CN(Cc4ccccn4)C(=O)[C@@]3(C)[C@H]2C1=O`, 11.8%.
As for `O=C(O)c1ccc(-c2nnc(-c3ccccc3)o2)cc1`, the figure is 15.5%.
For `CC(C)N1CCC(N2CCN(Cc3ccc(Oc4ncccn4)cc3)CC2CCO)CC1` (centres unmarked), the “hERG current change (%, negative = inhibition) at 1uM” value worked out at 14%.
As for `COc1ccc(Cc2nnc(Nc3ccc(Cl)cc3)[nH]c2=O)cc1`, the figure is 9.71%.

Values taken from article PMC4336329 (PLoS ONE, 2015).
